According to PubChem BioAssay AID1645882 (National Center for Advancing Translational Sciences (NCATS), 2021):
About 120 (0.75%) of roughly 16,000 compounds were called active. Roughly 4% stayed inconclusive and do not appear here. The call rests on the fitted dose curve; in most records, active means well fitted inhibition curve with a large enough effect; inconclusive means small, poorly fitted or top-dose-only effect; inactive means no such curve, though single readings can be large or run the other way. The list shows a part of the results.

Each compound was assayed against Rap guanine nucleotide exchange factor 3 (Homo sapiens) (UniProt O95398) (assay: Validation qHTS for antagonist of cAMP-regulated guanine nucleotide exchange factor 3 (EPAC1)). Conditions: EPAC1 Rap1B-BODIPY-GDP exchange, fluorescence; series mostly up to 150 µM; activity change, negative = inhibition: at the top concentration.
Chain of UniProt O95398 (O95398 whole entry, looked up): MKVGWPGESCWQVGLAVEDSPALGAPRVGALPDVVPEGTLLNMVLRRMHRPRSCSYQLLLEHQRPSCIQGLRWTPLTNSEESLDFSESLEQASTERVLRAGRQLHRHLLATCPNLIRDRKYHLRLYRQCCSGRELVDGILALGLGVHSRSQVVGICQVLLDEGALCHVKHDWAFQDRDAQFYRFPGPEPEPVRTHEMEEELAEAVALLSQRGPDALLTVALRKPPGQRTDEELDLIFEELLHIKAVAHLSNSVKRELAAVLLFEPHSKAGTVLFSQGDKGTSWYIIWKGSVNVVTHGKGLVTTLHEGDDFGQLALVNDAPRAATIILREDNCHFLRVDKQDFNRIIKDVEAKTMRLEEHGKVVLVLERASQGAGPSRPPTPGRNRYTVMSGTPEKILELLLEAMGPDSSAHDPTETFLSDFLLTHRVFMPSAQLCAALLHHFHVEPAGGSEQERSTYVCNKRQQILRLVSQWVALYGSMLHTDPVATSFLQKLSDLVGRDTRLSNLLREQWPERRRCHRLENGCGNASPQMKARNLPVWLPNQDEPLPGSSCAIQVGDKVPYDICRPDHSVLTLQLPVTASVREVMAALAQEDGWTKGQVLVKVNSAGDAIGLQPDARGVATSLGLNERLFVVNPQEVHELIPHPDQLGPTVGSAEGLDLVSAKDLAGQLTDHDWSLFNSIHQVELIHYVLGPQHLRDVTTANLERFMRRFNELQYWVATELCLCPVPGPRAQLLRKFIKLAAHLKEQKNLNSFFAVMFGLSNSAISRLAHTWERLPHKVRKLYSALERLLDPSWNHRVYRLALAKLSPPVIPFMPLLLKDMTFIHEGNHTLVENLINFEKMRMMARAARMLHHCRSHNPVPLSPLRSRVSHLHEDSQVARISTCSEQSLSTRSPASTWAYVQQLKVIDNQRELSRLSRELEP
Procedure, shortened: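 Nucleotide exchange followed as fluorescence loss when BODIPY-GDP leaves Rap1B (480 nm excitation, 540 nm emission), read at 5 min intervals over 30 min. Reaction: 100 nM EPAC1, 250 nM RAP1B-BODIPY-GDP, 50 uM GDP; ATA and DMSO define normalization.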
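Further: plate controls were DMSO for no effect and ATA control for full effect; nearly all actives have a fitted effect of over 75% in size.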

SMILES	activity change, negative = inhibition
CCOC(=O)C(CCc1ccccc1)NC(C)C(=O)N1C(C(=O)O)CC2CCCC21 (centres undefined)	inactive: 12.9%
COc1cc(/C=C/C(=O)O)cc(OC)c1OC	inactive: 7.44%
Oc1cc(-c2cccs2)cc2c1OCCN(Cc1cn[nH]c1-c1ccc(Cl)cc1)C2	inactive: -16.3%
CC(=O)/C=C1\C(=O)N(C)c2ccccc21	inactive: -0.804% [at 75.8 µM]
CC(C)(C)[C@@H]1CCC(=O)N(CC[C@H](Sc2ccc(Br)cc2)c2ccccc2)CC1	inactive: 2.73%
COc1ccc2[nH]c(C(O)C(O)c3nc4c(OC)c(OC)ccc4[nH]3)nc2c1OC (centres undefined)	inactive: 16.7%
Cc1cnc(-n2ncc(C(=O)NCCc3cccnc3)c2C)nc1-c1cccs1	inactive: 6.73%
OC[C@H]1O[C@@H](Oc2ccc(O)cc2)[C@H](O)[C@@H](O)[C@@H]1O	inactive: 20.8%
Nc1ccc(S(=O)(=O)c2ccc(N)cc2)cc1	inactive
COc1ccc(OC)cc1	inactive: 9.67%
OCCN1CCN(CCCN2c3ccccc3Sc3ccc(Cl)cc32)CC1	inactive
COc1ccc(-c2nc3cnc(Oc4ccccc4)nc3n(C3CC3)c2=O)cc1	inactive: 11.8%
CN1CCCC2(CCN(C(=O)c3cccc(F)c3)CC2)C1	inactive: 18.8%
CC(C)C(C)(C)C(C)(C)C(C)(C)S	inactive: 11.2% [at 320 µM]
c1ccc(CNc2nc(-c3ccoc3)nc3ccccc23)cc1	inactive: -4.51%
COc1ccc2c(c1)c1c3n2CCN(C)C3=NCC1	inactive: 9.42%
CN(C)CCc1c[nH]c2ccc(Cn3cncn3)cc12	inactive: 22.9%
CCCC(=O)O[C@]1(C(=O)COC(C)=O)CC[C@H]2[C@@H]3C[C@H](F)C4=CC(=O)C=C[C@]4(C)[C@@]3(F)[C@@H](O)C[C@@]21C	inactive: -4.63%
O=C(c1cccc(F)c1)N1CCC2(CC1)CN(Cc1ccccc1)C2	inactive: -6.25%
Cn1nnnc1SCC1=C(C(=O)O)N2C(=O)[C@@H](NC(=O)[C@H](O)c3ccccc3)[C@H]2SC1	inactive: 18% [at 75.8 µM]
COCCn1c(=O)c(CCc2ccccc2)nc2cnc(Oc3ccc(OC)cc3)nc21	inactive: -4.13%
CS(=O)(=O)N1CCC2(CCN(Cc3nccs3)CC2)CC1	inactive: 15.4%
Nc1ccc(C(=O)NCC(=O)O)cc1	inactive

SMILES	activity change, negative = inhibition
COc1ccc(NS(=O)(=O)c2ccc(N)cc2)nn1	inactive
C#C[C@]1(O)CC[C@H]2[C@@H]3CCC4=Cc5oncc5CC4(C)[C@H]3CCC21C (some centres undefined)	inactive: -1.09% [at 75.8 µM]
COc1ccccc1CN1CC2(CCN(C(=O)c3ccncc3)CC2)C1	inactive: 15.5%
COc1ccc(-n2c(=O)cnc3cnc(N(C)C)nc32)cc1	inactive: 11%
COC(=O)[C@@H]1CCCN1C(=O)c1c(OC)cc(=O)n2c1CCN(Cc1c(C)[nH]c3ccccc13)CC2	inactive: -3.83%
CC1(C)OC(=O)NC1=O	inactive: 17.6%
CN(N=O)C(=O)N[C@H]1C(O)OC(CO)[C@@H](O)[C@H]1O (some centres undefined)	inactive: -18%
O=c1c(-c2ccc(F)cc2)nc2cnc(N3CCNCC3)nc2n1Cc1ccc(F)cc1	inactive: 4.17%
COc1ccc(NC(=O)N2CCCC3(CCN(C(=O)c4ccc(OC)cc4)CC3)C2)cc1	inactive: 1.24%
N[C@@H](C(=O)O)c1ccc(C(=O)O)c(C(=O)O)c1	inactive: -4.03%
N#Cc1ccc(CN2CC[C@@]3(CCCN(C(=O)c4ccncc4)C3)C2)cc1	inactive: 20.1%
O=Nc1c(-c2c(O)[nH]c3cc(Br)ccc23)[nH]c2ccccc12	inactive: -4% [at 75.8 µM]
O=C1c2ccccc2-n2c1nc1ccccc1c2=O	inactive: 19.3%
O=C(NCc1ccncc1)c1cnn(-c2ncc3c(n2)-c2ccccc2CC3)c1C1CC1	inactive: 12.6%
CO[C@@H]1[C@@H](OC(N)=O)[C@@H](O)[C@H](Oc2ccc3c(O)c(NC(=O)c4ccc(O)c(CC=C(C)C)c4)c(=O)oc3c2C)OC1(C)C	inactive: 15.4% [at 75.8 µM]
O=C(NCO)c1cccnc1	inactive: 3.68%
NC1=NCCCC1	inactive: -1.58%
O=C(c1ccncc1)N1CCC2(CCCN(c3ccccc3)C2)CC1	inactive: 6.93%
O=c1c(-c2ccccc2)nc2cnc(Oc3ccccc3)nc2n1C1CC1	inactive: 2.63%
O=c1cnc2cnc(Nc3ccccc3)nc2n1C[C@H]1CCCO1	inactive: 6.54%
CCS(=O)(=O)N(C)[C@@H]1c2cc(C#N)ccc2OC(C)(C)[C@H]1O	inactive
Brc1c(Br)c(Br)c2n[nH]nc2c1Br	inactive: -7.12% [at 75.8 µM]
Cc1ccc2[nH]nc(C(=O)N3CCOc4ccc(CN5CCc6sccc6C5)cc4C3)c2c1	inactive: 9.32%

SMILES	activity change, negative = inhibition
CN(C)C(=N)N=C(N)N	inactive
CN1CCC(=O)N([C@H](CN=[N+]=[N-])c2ccccc2)CC1	inactive: 11.1%
O=S(O)CNc1ccc(S(=O)(=O)c2ccc(NCS(=O)O)cc2)cc1	inactive: -11.4%
N#Cc1cccc(-c2ccc3ncnc(NCc4cccnc4)c3c2)c1	inactive: 15.9%
CC(C)[C@H](N)C(=O)OCCOCn1cnc2c(=O)[nH]c(N)nc21	inactive: 28.1%
CC(C)(O)C#Cc1ccc(CN2CCc3nnc(CCNC(=O)c4ccco4)n3CC2)cc1	inactive: -12.6%
O=C(CCN1Cc2ccccc2OC(c2ccccc2)C1)N[C@@H]1CS(=O)(=O)C[C@H]1O (some centres undefined)	inactive: 9.26%
CSc1nc(C(=O)N2CCc3c(cnc(C)c3CNC(=O)c3ccc4c(c3)OCO4)C2)cs1	inactive: 5.75%
O=C(O)CC[C@@H](C(=O)O)N1C(=O)c2ccccc2C1=O	inactive: -4.61% [at 75.8 µM]
CCN(CC)C1CCN(C(=O)c2cnn(-c3nccc(-c4ccccc4OC)n3)c2-c2ccco2)C1 (centres undefined)	inactive: 20.3%
CCOC(=O)C[C@H]1c2cc(F)ccc2S(=O)(=O)N1c1cccc(OC)c1	inactive: 12.5%
CC(=O)Oc1cccc(O)c1	inactive: 19.3%
Cc1occc1C(=O)Nc1cccc(-c2nc(CNC(=O)c3ccc(N4CCCCC4)cc3)c(C)o2)c1	inactive: -4.82%
CCOC(=O)c1c[nH]c2nc(C)ccc2c1=O	inactive: 24.4%
O=C1CCNCCN1[C@H](CO)c1ccccc1	inactive: 2.58%
COCC(=O)Nc1cc(C(=O)N2CCCC(c3ccccc3)CC2)c2c(c1)nc(-c1ccncc1)n2C (centres undefined)	inactive: -8.48%
Cc1noc(C)c1C(=O)N1CCC[C@@]2(CCN(Cc3nccs3)C2)C1	inactive: 17.4%
CSC(N)=NCCCC(N)C(=O)O (centres undefined)	inactive: 6.25%
CC(C)C(C)/C=C/C(C)C1CCC2C3=CCC4CC(=O)CC[C@@]4(C)C3CC[C@]21C (some centres undefined)	inactive: 0.631%
CCCc1c(OCCCCc2nn[nH]n2)ccc(C(C)=O)c1O	inactive
COc1cccc(CN2Cc3cccc4c3[C@H](C=CC4)CC2=O)c1	inactive: -0.201%
COc1ccc(CN2CCOc3ccc(C(O)c4cccnc4)cc3C2)cc1 (centres undefined)	inactive: 20.8%
Cc1cnc2ccccc2c1C	inactive: 21.8%
